Experimental data: article PMC6212790
The list shows a part of the results. At the low end of the ranking the order means little.

Each sequence was assayed against T1, GST-Rok-C97-191 (UniProt O34857) (assay: protein binding microarray). Details: Rok is a gene silencer of Bacillus subtilis; high values mean tight binding; most listed sequences are background and not binding sites; double strand, one strand shown.
T1 sequence: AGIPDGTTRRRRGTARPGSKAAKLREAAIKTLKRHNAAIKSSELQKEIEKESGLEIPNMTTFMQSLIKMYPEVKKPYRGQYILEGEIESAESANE
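Also: rank score from −0.5 (least bound) to 0.5 (best bound).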

| Sequence | binding signal [E-score] |
| --- | --- |
| CGCGATCA | -0.257 |
| ACCACCGA | 0.118 |
| ACGGACCG | -0.233 |
| GTCCTATA | 0.0477 |
| CTTTTGCC | -0.0234 |
| TACGTATA | 0.349 |
| AGCCTGAC | -0.0314 |
| CCCTTCTC | -0.155 |
| CCGTAGTC | -0.208 |
| CCTATGCC | 0.00707 |
| AGCACTTG | -0.0182 |
| ATGACCAC | 0.0273 |
| ACTAAGTC | 0.0841 |
| CGGAGCCC | -0.287 |
| ATAACAAA | 0.186 |
| CCTGCCTC | -0.188 |
| GCTTTTGA | -0.0321 |
| AAGTTACG | 0.0571 |
| CCCTCGCG | -0.358 |
| AACGAGGG | -0.21 |
| CGACGAGA | -0.0061 |
| CATTTCTC | 0.112 |
| CGTCGCGC | 0.0236 |
| CGAGAACG | -0.128 |
| CAACGGAA | 0.051 |

| Sequence | binding signal [E-score] |
| --- | --- |
| CCCTTAGG | -0.213 |
| CGTAGCCA | -0.241 |
| AATTAAGA | 0.169 |
| ATGCTGTA | 0.212 |
| ACGAACAG | -0.0336 |
| CCCGTGAG | -0.187 |
| ATAACGCC | -0.0672 |
| AATGCCTC | -0.242 |
| GGTAAGAC | -0.0409 |
| GATCCAAA | 0.0806 |
| GGATACAA | -0.00377 |
| GCTTCACC | -0.104 |
| GGGCGCAC | -0.239 |
| GATACGGA | -0.0098 |
| TATACCAA | 0.215 |
| GTTACGTA | 0.196 |
| ACCAGGTG | -0.113 |
| AGGAATTC | -0.0657 |
| ATCCCAAC | 0.0333 |
| TTACTAAA | 0.335 |
| CCGTAGTA | 0.234 |
| AGAACTTC | -0.0176 |
| CTATTTGA | 0.151 |
| AAGAGCCG | -0.232 |
| CTGACCGC | -0.19 |

| Sequence | binding signal [E-score] |
| --- | --- |
| ACCGCCTG | -0.264 |
| AAGCGACG | -0.0778 |
| ACACCGCA | -0.176 |
| CCAGCCTA | -0.167 |
| CCTCCACC | -0.314 |
| CTAGCAGC | -0.0431 |
| CTCCGTTA | 0.0706 |
| GCGCAGGA | -0.0412 |
| ATTCGGTG | -0.0955 |
| CGTCGAAG | 0.00693 |
| ATTGAATC | 0.0979 |
| GTATTGAA | 0.118 |
| AGTACTTC | 0.218 |
| AACACCTG | -0.0774 |
| ACCTAAGC | -0.0042 |
| AATCTGAA | -0.154 |
| ACTAAATA | 0.354 |
| AGGCTCAT | -0.136 |
| GCCCCCCA | -0.461 |
| AAGCCATC | -0.258 |
| AGCGTGAA | -0.138 |
| TCTCCACA | -0.132 |
| CCACGGCA | -0.157 |
| CGGGGAAG | -0.0953 |
| TAGTGATA | 0.292 |

| Sequence | binding signal [E-score] |
| --- | --- |
| AACCGTTG | -0.0513 |
| CTGCTAAG | -0.108 |
| AGCTCAAC | 0.157 |
| GATTTCCA | -0.0225 |
| CGGTTGAG | -0.00416 |
| CTTATACA | 0.263 |
| AACATATC | 0.233 |
| AGGACCCT | -0.23 |
| CAACACTG | 0.0349 |
| CCACTAGG | 0.0281 |
| AGATAACC | 0.136 |
| ATGATGAA | 0.155 |
| CATGTGAA | -0.104 |
| ATCAATGC | 0.0392 |
| AAGAAGGG | -0.273 |
| AAGATTTA | 0.192 |
| ACGCAGTA | 0.000553 |
| CCCACCGA | -0.138 |
| AGATCACA | 0.226 |
| ATAGGTAG | 0.358 |
| AGCGACCA | -0.0379 |
| CCAAATCA | -0.108 |
| CTGTTCGC | -0.0902 |
| GATCAAAC | -0.074 |
| CCCTGTAC | -0.119 |

| Sequence | binding signal [E-score] |
| --- | --- |
| GCACGGTA | 0.294 |
| AAACGAGG | -0.106 |
| ATTTGATG | 0.139 |
| CTTGGCGA | -0.0992 |
| CAATCGAA | -0.067 |
| AACGGCTC | -0.146 |
| ATTGGCCA | -0.185 |
| ACTGCCCA | -0.0652 |
| AAAACACA | 0.0394 |
| GTCAGCGA | -0.0649 |
| ACCGTACC | -0.0769 |
| AACAATCT | 0.0215 |
| CCTACAAA | 0.0991 |
| GATCAAGC | -0.207 |
| AAATATGT | 0.287 |
| TATATAAA | 0.394 |
| CTGCCGCC | -0.353 |
| ACATTGAT | 0.114 |
| ATGTAAAC | 0.031 |
| ATTTCTAA | 0.357 |
| CTTAGTCC | -0.0813 |
| AAGGACCA | 0.109 |
| TATTTGCA | 0.199 |
| ACTGCGGC | -0.278 |
| AAGACGGG | 0.0275 |

| Sequence | binding signal [E-score] |
| --- | --- |
| ACAGTCGC | -0.203 |
| CAATTTTC | 0.155 |
| TGACGCCA | -0.199 |
| GGACCTCC | -0.11 |
| ACTCCCTG | -0.0834 |
| AAGCCGAT | -0.0234 |
| GATCAATA | 0.0798 |
| AACTTTCA | 0.141 |
| TTCTGAAA | 0.0839 |
| CAATGACA | -0.0738 |
| CAGTTTTC | 0.0426 |
| AGCGTTAG | -0.144 |
| AAGCTTAA | 0.0744 |
| AAGGTCCG | -0.202 |
| ACGCCCGC | -0.218 |
| ATCCAGGC | -0.157 |
| ACTTTGGA | -0.0486 |
| AAAGGTAT | 0.211 |
| ACTGGCAT | 0.00831 |
| AAGATTAG | 0.219 |
| CCAATATC | 0.0965 |
| CCAGGAAC | -0.159 |
| ATTGGGCC | -0.215 |
| ACAACGCA | 0.111 |
| AAGCCTCA | -0.158 |

| Sequence | binding signal [E-score] |
| --- | --- |
| GTTCATAA | -0.0201 |
| GAGACTCC | -0.264 |
| ATCTCGGA | 0.172 |
| ATCACATA | 0.259 |
| GAATGTCA | -0.127 |
| ATTGAGGG | -0.0161 |
| GTGCACAC | -0.196 |
| CAGGGAGA | -0.213 |
| AACCAGAG | -0.197 |
| CCGGTCTA | 0.0379 |
| CCCTGCTC | -0.166 |
| CTGAGGGA | -0.199 |
| GGCGACAA | -0.408 |
| GTATACAC | 0.185 |
| CAGGACCC | -0.103 |
| ATGGGCAG | -0.107 |
| ATAATCCG | 0.0738 |
| AGGCAAGG | -0.352 |
| AGCCAGGC | -0.154 |
| CACTTATA | 0.281 |
| CTCCCATA | 0.0179 |
| AGAAAAAT | 0.134 |
